Residue numbers refer to the chain shown, from its start. These are yes or no findings as the source states them, for the method shown. In cells and extracts the contact can be indirect. Some results given as binding are weak or reduced against the parent protein; the word gives no strength. Where a sequence is shown, tags or fusion partners need not be part of it.
Assays:
[1] = molecular target: T1, GFP-tagged Dm Roquin M4 mutant (Drosophila melanogaster) (UniProt Q9VV48); experiment: co-IP; GFP-tagged Dm Roquin and HA-tagged CAF40 co-expressed in Dm S2 cells in the presence of HA-tagged CN9BD; lysates treated with RNase A (Fig. 5)
T1 sequence: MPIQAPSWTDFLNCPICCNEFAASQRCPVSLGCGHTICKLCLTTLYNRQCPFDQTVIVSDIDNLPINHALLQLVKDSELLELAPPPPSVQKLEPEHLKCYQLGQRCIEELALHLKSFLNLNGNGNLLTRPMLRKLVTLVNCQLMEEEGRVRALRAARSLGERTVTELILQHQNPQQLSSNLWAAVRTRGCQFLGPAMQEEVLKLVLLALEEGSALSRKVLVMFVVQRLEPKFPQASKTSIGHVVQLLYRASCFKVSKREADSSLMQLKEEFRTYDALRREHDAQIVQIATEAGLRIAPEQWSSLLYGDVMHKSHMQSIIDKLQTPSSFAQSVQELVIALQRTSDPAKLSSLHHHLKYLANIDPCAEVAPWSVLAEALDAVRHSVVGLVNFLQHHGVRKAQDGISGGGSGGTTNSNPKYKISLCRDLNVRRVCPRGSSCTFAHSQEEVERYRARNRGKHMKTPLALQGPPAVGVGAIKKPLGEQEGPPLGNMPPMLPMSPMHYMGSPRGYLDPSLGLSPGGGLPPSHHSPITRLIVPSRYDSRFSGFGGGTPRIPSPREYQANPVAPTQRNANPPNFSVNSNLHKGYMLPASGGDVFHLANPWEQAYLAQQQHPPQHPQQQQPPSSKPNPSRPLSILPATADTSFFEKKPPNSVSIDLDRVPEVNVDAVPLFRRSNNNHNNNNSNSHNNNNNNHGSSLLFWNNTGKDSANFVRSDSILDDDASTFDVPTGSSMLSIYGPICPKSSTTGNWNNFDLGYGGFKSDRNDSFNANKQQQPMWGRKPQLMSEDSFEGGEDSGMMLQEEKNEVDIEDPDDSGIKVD

Sequences of proteins named here, by UniProt entry; tags and fusion partners are left off.
UniProt Q7JVP2: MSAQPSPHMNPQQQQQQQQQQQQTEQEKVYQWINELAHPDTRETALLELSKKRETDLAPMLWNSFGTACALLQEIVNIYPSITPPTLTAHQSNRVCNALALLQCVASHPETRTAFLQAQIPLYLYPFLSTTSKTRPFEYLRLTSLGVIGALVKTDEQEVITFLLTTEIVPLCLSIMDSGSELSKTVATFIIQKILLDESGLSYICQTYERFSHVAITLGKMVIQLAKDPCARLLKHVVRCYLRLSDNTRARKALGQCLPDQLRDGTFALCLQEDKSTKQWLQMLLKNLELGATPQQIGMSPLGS
UniProt A5YKK6: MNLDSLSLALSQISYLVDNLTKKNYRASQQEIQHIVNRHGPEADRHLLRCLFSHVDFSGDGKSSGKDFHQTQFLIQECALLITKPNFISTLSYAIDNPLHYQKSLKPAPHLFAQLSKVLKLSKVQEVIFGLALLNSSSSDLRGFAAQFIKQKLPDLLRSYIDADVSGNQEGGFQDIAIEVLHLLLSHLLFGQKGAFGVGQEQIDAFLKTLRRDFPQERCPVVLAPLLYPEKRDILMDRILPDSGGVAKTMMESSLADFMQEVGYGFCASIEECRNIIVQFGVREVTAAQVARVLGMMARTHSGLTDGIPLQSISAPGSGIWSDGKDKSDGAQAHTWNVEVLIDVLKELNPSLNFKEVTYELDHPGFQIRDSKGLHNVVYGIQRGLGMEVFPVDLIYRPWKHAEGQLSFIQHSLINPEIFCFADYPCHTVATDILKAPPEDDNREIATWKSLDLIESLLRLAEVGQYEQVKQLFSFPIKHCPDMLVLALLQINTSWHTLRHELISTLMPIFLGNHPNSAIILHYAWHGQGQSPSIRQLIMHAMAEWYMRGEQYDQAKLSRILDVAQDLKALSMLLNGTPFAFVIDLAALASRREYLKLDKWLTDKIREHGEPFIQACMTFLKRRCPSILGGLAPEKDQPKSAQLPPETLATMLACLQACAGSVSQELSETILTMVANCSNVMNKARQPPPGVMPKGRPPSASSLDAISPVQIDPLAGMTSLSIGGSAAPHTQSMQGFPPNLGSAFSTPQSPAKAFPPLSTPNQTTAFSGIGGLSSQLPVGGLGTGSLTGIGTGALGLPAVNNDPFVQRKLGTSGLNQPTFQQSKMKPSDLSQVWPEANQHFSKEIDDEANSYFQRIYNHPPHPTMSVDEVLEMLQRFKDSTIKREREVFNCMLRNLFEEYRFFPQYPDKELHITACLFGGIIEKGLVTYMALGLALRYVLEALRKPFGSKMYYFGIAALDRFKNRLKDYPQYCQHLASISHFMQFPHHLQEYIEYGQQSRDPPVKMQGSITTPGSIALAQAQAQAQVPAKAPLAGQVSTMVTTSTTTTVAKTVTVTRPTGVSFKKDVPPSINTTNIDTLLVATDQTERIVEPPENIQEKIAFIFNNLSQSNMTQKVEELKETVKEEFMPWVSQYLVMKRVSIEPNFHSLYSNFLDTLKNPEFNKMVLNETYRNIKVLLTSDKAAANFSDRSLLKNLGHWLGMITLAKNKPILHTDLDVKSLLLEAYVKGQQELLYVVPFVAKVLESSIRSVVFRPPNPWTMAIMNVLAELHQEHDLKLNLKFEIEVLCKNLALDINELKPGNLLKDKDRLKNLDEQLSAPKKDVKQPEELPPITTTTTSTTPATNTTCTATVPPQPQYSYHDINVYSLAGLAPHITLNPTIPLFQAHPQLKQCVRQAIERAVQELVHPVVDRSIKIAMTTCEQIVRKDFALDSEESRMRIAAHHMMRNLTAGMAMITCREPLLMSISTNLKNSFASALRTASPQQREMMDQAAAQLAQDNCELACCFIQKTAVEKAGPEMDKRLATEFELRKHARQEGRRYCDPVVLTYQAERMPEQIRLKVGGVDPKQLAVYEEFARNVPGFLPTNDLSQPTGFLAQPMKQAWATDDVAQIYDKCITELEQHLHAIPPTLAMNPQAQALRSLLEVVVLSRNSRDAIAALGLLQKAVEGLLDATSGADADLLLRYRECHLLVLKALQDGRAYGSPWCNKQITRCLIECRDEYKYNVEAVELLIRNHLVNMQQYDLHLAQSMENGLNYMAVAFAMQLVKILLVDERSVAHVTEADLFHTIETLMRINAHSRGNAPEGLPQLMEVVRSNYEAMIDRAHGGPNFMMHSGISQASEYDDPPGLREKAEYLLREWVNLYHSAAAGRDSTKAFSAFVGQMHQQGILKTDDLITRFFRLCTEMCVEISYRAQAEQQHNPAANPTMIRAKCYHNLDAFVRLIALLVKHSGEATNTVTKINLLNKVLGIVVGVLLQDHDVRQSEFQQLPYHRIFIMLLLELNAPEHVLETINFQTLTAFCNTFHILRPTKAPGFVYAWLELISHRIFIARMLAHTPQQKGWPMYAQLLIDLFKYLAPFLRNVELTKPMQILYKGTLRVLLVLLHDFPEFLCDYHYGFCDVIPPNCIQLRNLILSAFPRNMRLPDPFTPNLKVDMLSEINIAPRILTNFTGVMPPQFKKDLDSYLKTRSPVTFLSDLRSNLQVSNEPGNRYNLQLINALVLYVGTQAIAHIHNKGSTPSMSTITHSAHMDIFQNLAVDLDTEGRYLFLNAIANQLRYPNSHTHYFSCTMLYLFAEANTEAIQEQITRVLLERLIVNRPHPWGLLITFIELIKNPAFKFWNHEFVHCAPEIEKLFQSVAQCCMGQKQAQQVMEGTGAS
UniProt Q9NZN8: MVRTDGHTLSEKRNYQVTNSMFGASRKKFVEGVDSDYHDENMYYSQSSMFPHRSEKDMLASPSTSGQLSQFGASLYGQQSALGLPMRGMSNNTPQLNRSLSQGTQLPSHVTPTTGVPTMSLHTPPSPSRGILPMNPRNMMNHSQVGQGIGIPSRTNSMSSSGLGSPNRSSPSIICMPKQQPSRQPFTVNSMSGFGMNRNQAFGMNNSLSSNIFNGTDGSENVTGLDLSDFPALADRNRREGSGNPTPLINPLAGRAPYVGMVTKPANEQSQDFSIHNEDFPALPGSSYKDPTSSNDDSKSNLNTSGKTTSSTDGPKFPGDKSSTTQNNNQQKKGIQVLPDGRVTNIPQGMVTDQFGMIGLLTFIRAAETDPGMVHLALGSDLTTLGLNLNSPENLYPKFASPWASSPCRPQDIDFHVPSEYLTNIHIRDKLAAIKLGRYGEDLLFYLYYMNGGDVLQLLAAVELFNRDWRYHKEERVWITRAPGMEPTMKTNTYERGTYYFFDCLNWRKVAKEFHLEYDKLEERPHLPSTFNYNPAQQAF
UniProt O75175: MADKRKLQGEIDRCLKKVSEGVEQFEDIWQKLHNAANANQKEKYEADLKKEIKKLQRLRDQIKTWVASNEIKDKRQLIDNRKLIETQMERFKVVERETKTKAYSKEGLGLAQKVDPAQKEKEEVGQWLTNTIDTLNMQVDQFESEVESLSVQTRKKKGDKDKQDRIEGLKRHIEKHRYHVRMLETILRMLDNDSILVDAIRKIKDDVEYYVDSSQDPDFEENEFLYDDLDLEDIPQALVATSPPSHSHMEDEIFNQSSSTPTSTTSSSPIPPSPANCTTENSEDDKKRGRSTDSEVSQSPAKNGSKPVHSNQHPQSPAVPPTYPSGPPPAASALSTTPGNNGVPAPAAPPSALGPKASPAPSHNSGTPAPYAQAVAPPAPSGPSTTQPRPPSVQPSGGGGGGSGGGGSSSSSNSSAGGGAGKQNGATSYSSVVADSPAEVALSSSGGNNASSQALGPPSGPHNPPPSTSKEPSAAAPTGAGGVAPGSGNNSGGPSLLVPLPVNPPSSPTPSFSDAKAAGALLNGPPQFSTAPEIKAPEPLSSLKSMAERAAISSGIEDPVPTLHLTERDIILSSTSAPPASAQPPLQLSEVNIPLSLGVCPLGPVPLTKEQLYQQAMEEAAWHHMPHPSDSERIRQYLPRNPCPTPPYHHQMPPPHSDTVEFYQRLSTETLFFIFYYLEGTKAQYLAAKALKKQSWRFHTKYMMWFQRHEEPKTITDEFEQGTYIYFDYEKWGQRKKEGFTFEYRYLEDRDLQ

[2] = molecular target: T2, GFP-tagged Dm Roquin ΔCBM (Drosophila melanogaster) (UniProt Q9VV48); experiment: as above
T2 sequence: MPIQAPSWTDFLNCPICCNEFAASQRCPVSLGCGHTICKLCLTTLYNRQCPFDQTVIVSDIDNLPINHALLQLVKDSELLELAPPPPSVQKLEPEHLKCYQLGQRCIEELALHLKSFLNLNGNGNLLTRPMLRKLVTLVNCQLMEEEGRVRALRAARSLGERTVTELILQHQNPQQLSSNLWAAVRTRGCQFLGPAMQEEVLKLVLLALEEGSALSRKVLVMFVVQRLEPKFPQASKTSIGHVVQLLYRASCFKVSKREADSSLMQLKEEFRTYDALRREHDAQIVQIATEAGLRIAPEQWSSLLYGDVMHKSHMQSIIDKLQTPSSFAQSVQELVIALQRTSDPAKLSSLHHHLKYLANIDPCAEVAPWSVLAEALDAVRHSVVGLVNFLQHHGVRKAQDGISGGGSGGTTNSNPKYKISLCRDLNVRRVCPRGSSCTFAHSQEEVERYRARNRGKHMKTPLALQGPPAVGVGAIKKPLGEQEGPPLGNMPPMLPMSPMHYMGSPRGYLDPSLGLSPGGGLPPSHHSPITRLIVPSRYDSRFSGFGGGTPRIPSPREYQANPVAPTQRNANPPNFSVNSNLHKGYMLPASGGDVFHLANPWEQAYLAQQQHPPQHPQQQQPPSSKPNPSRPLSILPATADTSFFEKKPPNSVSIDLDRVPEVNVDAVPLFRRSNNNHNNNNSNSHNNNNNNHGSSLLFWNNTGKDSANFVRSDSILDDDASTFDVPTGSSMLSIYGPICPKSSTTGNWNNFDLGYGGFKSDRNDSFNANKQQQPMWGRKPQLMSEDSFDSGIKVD

[3] = molecular target: T3, GFP-tagged Dm Roquin (full-length, wild-type) (Drosophila melanogaster) (UniProt Q9VV48); experiment: co-IP; GFP-tagged Dm Roquin and HA-tagged deadenylase or decapping factors co-expressed in Dm S2 cells; lysates treated with RNase A; anti-GFP and anti-HA blots
T3 sequence: T1 sequence with E793I, E801L, E805L, E809V

[4] = molecular target: T4, V5-SBP-tagged Dm Roquin (full-length) (Drosophila melanogaster) (UniProt Q9VV48); experiment: pull-down; SBP pulldown from lysates of HEK293T cells expressing V5-SBP-tagged Roquin proteins (bait); endogenous NOT1, NOT2 and NOT3 in the bound fractions detected by western blotting
T4 sequence: T1 sequence with E793I, E801L, E805L, E809V

[5] = molecular target: T5, V5-SBP-tagged Dm Roquin ΔCBM (Drosophila melanogaster) (UniProt Q9VV48); experiment: as above
T5 sequence: T2 sequence

Row | Substance | binding [1] | binding [2] | binding [3] | binding [4] | binding [5]
1 | HA-tagged Dm CAF40 (full-length, wild-type) (from UniProt Q7JVP2 1-304) | no binding | no binding | binds |  | 
2 | endogenous NOT1 (HEK293T) (from UniProt A5YKK6 1-2376) |  |  |  | binds | no binding
3 | endogenous NOT2 (HEK293T) (from UniProt Q9NZN8 1-540) |  |  |  | binds | no binding
4 | endogenous NOT3 (HEK293T) (from UniProt O75175 1-753) |  |  |  | binds | no binding
